In article PMC4336329 (PLoS ONE, 2015):
Out of some 310,000 compounds screened, about 2,200 (0.71%) showed an effect of 50% or more. Effects have a minus sign here. Some of the results follow.

Each compound was assayed against human ether-à-go-go-related gene (hERG) potassium channel (human, UniProt Q12809) (assay: primary screen, population patch clamp on CHO cells stably expressing hERG).
human ether-à-go-go-related gene (hERG) potassium channel, sequence (Q12809 whole entry, looked up): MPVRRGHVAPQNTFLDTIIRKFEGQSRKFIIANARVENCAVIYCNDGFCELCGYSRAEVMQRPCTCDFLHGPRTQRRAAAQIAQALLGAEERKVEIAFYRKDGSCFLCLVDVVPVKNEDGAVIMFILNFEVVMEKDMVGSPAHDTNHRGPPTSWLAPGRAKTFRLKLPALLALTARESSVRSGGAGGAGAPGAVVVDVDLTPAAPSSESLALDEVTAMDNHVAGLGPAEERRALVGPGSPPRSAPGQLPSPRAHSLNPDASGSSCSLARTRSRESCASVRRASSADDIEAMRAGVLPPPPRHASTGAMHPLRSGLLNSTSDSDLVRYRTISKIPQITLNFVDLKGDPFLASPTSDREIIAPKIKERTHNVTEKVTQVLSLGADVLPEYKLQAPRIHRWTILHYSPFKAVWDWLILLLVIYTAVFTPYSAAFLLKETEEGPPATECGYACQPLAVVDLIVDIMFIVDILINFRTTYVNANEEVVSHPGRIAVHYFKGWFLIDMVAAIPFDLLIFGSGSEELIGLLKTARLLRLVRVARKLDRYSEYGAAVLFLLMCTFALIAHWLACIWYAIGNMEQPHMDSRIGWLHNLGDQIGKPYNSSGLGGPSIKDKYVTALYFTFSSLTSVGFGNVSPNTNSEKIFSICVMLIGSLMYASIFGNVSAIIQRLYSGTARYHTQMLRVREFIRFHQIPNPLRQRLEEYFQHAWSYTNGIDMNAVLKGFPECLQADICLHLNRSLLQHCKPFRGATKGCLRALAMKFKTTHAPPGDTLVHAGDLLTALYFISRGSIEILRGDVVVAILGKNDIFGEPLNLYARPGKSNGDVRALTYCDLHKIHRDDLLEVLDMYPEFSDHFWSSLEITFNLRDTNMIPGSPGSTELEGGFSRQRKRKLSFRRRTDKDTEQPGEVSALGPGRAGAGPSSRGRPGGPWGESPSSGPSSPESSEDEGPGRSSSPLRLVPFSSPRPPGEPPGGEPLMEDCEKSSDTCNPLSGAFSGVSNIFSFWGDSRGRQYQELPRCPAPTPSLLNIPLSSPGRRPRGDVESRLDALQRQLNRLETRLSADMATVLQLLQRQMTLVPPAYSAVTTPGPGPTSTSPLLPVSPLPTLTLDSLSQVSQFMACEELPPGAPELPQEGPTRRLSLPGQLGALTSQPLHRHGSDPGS

| SMILES | hERG current change (%, negative = inhibition) at 1uM |
| --- | --- |
| CC1Sc2ccc(S(=O)(=O)CCC(=O)N3CCc4ccccc43)cc2NC1=O (stereo not drawn) | 15.9% |
| CC(C)NS(=O)(=O)c1ccc(CCC(=O)O)cc1 | 7.71% |
| Cc1cccc(C(=O)NN2C(=O)C3C(c4ccccc4)C=CC(c4ccccc4)C3C2=O)c1 (stereo not drawn) | -7.68% |
| O=C(COC(=O)c1cc([N+](=O)[O-])ccc1N1CCOCC1)c1ccc(F)cc1 | 4.23% |
| S=C(Nc1ccccc1Cl)N1CCN(c2ccccn2)CC1 | 15.5% |
| CN(c1ccccc1)S(=O)(=O)c1cc(C(=O)c2nccn2C)ccc1Cl | 7.66% |
| O=C(Nc1ccc(Cl)c([N+](=O)[O-])c1)c1ccco1 | 9.65% |
| Cc1cc(NC(=O)c2cccc([N+](=O)[O-])c2)no1 | 11.5% |
| COc1ccc(-c2[nH]nc3oc(=O)c(CCO)c(C)c23)cc1.O=C(O)C(=O)O | 13.2% |
| CC[N+](CC)(CC(=O)Nc1c(C)cccc1C)Cc1ccccc1.O=C([O-])c1ccccc1 | 15.2% |
| O=C(Nc1cccc(Cl)c1Cl)c1ccc(-c2ccccc2)cc1 | 8.8% |
| CCc1ccccc1N(CC(=O)NC1CCCCC1)C(=O)CCCC(=O)Nc1ccccn1 | 2.25% |
| CCN1CCc2c(OCc3ccccc3)cccc2C1=O | 2.81% |
| COC(=O)C1CCN(Cc2cn(Cc3ccccc3)nc2-c2cc3ccccc3o2)CC1 | -33.8% |
| NCc1oc(-c2ccccc2)cc1C(=O)O | 14.2% |
| COc1ccc(C2=CC(c3c(C)nn(-c4ccccc4)c3Cl)n3nnnc3N2)cc1OC (stereo not drawn) | 14.6% |
| Cc1cc(C)cc(N2C(=O)CCN(Cc3ccccc3)C2=O)c1 | 15.2% |
| COc1ccc2cc(-c3nc4ccccc4n3C)c(=O)oc2c1 | 9.35% |
| Cc1ccc(NC(=O)CN(C)Cc2cc(=O)n3ccsc3n2)cc1 | 8.42% |
| CN(CC(=O)Nc1ccc(F)cc1)C(=O)c1cc2c(s1)CCCCC2 | 11.1% |
| Cc1cccc(C)c1NC(=O)CCCCCC1NC(=O)NC1C (stereo not drawn) | 7.25% |
| CC[C@]12C=CCN3CCC4(c5cc(Br)c(OC)cc5N(C)C4[C@@](O)(C(=O)OC)[C@@H]1OC(C)=O)C32 (stereo partly drawn) | 6.43% |

| SMILES | hERG current change (%, negative = inhibition) at 1uM |
| --- | --- |
| CCOc1cc(CNc2ccc3cn[nH]c3c2)ccc1OC | 10.8% |
| COc1ccc(S(=O)(=O)N/N=C(/C)c2cccc(NC(=O)c3ccccc3Cl)c2)cc1 | 9.77% |
| COc1cc(NC(=O)COC(=O)CNC(=O)C2CCCCC2)cc(OC)c1 | 10.1% |
| OC1(c2ccccc2)c2ccccc2-c2ncccc21 (stereo not drawn) | 5.63% |
| NS(=O)(=O)c1ccc(NCCCn2ccnc2)c([N+](=O)[O-])c1 | 12% |
| O=C(CSc1nccc(-c2ccc(Br)cc2)n1)NCCc1ccccc1 | 14.5% |
| Brc1ccc2oc(-c3ccn[nH]3)cc2c1 | 13% |
| COc1ccc(-c2cc(C#N)nc(Oc3ccc(Cl)cc3)n2)cc1 | 13.4% |
| Cn1c(=O)oc2cc(S(=O)(=O)Nc3cccc([N+](=O)[O-])c3)ccc21 | 14.9% |
| CCOC(=O)c1c(C)[nH]c(C(=O)OCC(=O)NC2CCS(=O)(=O)C2)c1C (stereo not drawn) | 5.65% |
| COc1ccc(-n2c(C)nc3cc(C(=O)NCc4ccco4)ccc32)cc1 | 6.81% |
| NC(=O)c1ccc(NC(=O)c2cnc3ccccc3n2)cc1 | 11.9% |
| COc1ccc2cc(CN(CCc3ccccc3)Cc3nnnn3Cc3ccco3)c(=O)[nH]c2c1 | 8.04% |
| O=C(O)c1ccccc1SCc1cn2cc(Br)ccc2n1 | 13.9% |
| O=C(NCCN=C1NS(=O)(=O)c2ccccc21)c1ccc(S(=O)(=O)N2CCOCC2)cc1 | 2.08% |
| CCOC(=O)N1CCN(CCC(=O)Nc2ccc(F)c(F)c2)CC1 | 14.6% |
| Cc1ccccc1NCc1ccc([N+](=O)[O-])s1 | 0.957% |
| CCC(=O)Nc1cccc(NC(=O)CSc2nnc(-c3ccc(NS(C)(=O)=O)cc3)n2C)c1 | 4.58% |
| O=C(CSc1nc2ccccc2o1)NC(=O)NCc1ccco1 | 3.13% |
| N#CC(C#N)=Cc1cn(-c2ncc(C(F)(F)F)cc2Cl)c2ccccc12 | 9.92% |
| CCCOc1cc(C)c(S(=O)(=O)n2nnc3ccccc32)cc1C | 12% |
| O=C(c1cccc(S(=O)(=O)N2CCCC2)c1)c1nnc(-c2ccncc2)o1 | 14.5% |

| SMILES | hERG current change (%, negative = inhibition) at 1uM |
| --- | --- |
| O=C(NC(=S)N1CCCc2ccccc21)c1ccccc1 | 12.9% |
| COc1ccc(/C=C/C(=O)OC2CCCN(C)C2)cc1.Cl (stereo not drawn) | 8.08% |
| O=C(NN1C(=O)/C(=C/C=C/c2ccco2)SC1=S)c1ccccc1O | 11% |
| CSc1ccccc1NC(=O)c1c(C)noc1C | 1.3% |
| CCOc1cc(NC(=S)NCCCN2CCOCC2)c(OCC)cc1NC(=O)c1ccccc1C | 4.2% |
| O=C(/C=C/N1CCOCC1)c1ccc(-c2ccccc2)cc1 | 11.3% |
| Cc1cnc(C(=O)N2CCCC(C(=O)c3ccc(Cl)cc3C)C2)cn1 (stereo not drawn) | 5.43% |
| COc1ccc(NC(=O)C(=O)NNC(=O)c2cccs2)cc1 | 16.8% |
| O=C(COC(=O)c1cc(S(=O)(=O)N2CCOCC2)ccc1F)NCc1ccco1 | 1.52% |
| CC12CN3CN(C1)CC(c1ccccc1)(C3)C2=O | 16% |
| COc1ccccc1OCCN1C(=O)S/C(=C\c2ccco2)C1=O | -2.97% |
| CCC(CC)COC(=O)C1=C(C)NC(=O)NC1c1cc(OC)ccc1OC (stereo not drawn) | 9.6% |
| COc1ccc(/C=N\NC(=O)c2ccccc2[N+](=O)[O-])cc1COc1c(F)c(F)c(F)c(F)c1F | 14.1% |
| CC(C)(C)c1ccc(C(=O)NCCn2c(N)c(C#N)c3nc4ccccc4nc32)cc1 | 10.2% |
| CCc1nnc(NC(=O)CN2CCN(Cc3ccc(C)cc3)CC2)s1 | -27.3% |
| NC(=O)c1ncc(C(F)(F)F)cc1Oc1ccc(C(F)(F)F)cc1 | 13% |
| COc1ccc(NC(=O)CN2CCCC2c2cccs2)cc1S(=O)(=O)N1CCCCC1 (stereo not drawn) | 0.0011% |
| NS(=O)(=O)c1ccc(CCNC(=O)CC(c2ccccc2)c2ccccc2)cc1 | 3.84% |
| O=C(NCc1cccs1)C1CC(=O)N(c2ccc(F)cc2)C1 (stereo not drawn) | -1.15% |
| C=C(C)[C@@H]1CC=C(C(=O)O)CC1 | 0.0391% |
| N/C(=N\OC(=O)c1ccc2ccccc2c1)c1ccccc1Cl | 7.03% |
| Cc1ccc(-c2nnc(SCc3nc(N)nc(Nc4ccccc4C)n3)n2N)cc1 | 2.21% |

| SMILES | hERG current change (%, negative = inhibition) at 1uM |
| --- | --- |
| COc1ccc(C(=O)NC(=S)NNC(=O)c2ccc3ccccc3n2)cc1 | 11.2% |
| Cc1ccc(NC(=O)/C(C#N)=C/c2cccs2)c(C)c1 | -4.64% |
| COc1ccc(CNC(=O)c2cc(-c3cccs3)on2)cc1 | 1.71% |
| CC1(C(=O)N2CCC(CC3CC(c4ccc(Cl)cc4)=NO3)(C(=O)NCC3CCCCC3)CC2)CC1 (stereo not drawn) | 2.37% |
| O=C(NCc1cccs1)Nc1ccc(Cl)cc1 | -3.6% |
| CCOc1cccc(OCC)c2c(C)[n+](CC3CCCO3)c(C)c1-2.[O-][Cl+3]([O-])([O-])[O-] (stereo not drawn) | 9.93% |
| CCOC(=O)C1=C(CC)OC(N)=C(C#N)C1c1ccc(OC)cc1OC (stereo not drawn) | 10.2% |
| O=C(Oc1ccc(/C=N/NC(=O)c2ccccn2)cc1)c1ccc(Br)cc1 | 3.91% |
| O=c1c([N+](=O)[O-])cccn1Cc1ccccc1Cl | 7.31% |
| Cc1cccc(C)c1NC1=NC(=S)N(c2ccc(N(C)C)cc2)C1(C)C | 7.62% |
| Cc1noc(C)c1CS(=O)(=O)Cc1ccc(Cl)cc1 | 10.1% |
| O=C1CCCC2=C1C(c1cccc(Br)c1)n1nc(-c3ccco3)nc1N2 (stereo not drawn) | 9.46% |
| COc1ccccc1N(C)S(=O)(=O)c1ccc(Cl)c(C(=O)NNC(=O)c2ccccc2O)c1 | 5.96% |
| Nc1cc(Oc2ccc(F)cc2F)cc([N+](=O)[O-])c1 | 10.1% |
| Cc1ccc(NC(=O)C2CSC3(C)CCC(=O)N23)cc1S(=O)(=O)N1CCCCCC1 (stereo not drawn) | 6.17% |
| Cc1nn(Cc2c(F)c(F)c(F)c(F)c2F)c(C)c1NC(=O)c1c([N+](=O)[O-])cnn1C | 9.21% |
| COc1ccccc1NC(=O)CCC(=O)c1ccc(-c2ccccc2)cc1 | 20.7% |
| COc1cc(C)nc(N2CCCC(C(=O)NCC(C)C)C2)n1 (stereo not drawn) | 12.3% |
| CC(CNC(=O)c1cncc(O)c1)NC(=O)c1cncc(O)c1.Cl (stereo not drawn) | 6.98% |
| O=C(O)c1ccc(/C=C2\SC(=S)N(Nc3ccccc3)C2=O)cc1 | -0.693% |
| CNS(=O)(=O)c1ccc(NC(=O)c2cnn3c(C(F)F)cc(-c4ccccc4)nc23)cc1 | 3.27% |
